# “And” between values parts separate entries of the source, which are not always exact repeats. Identical values can stand only once. Counter-ions that a name gives are not always drawn. The whole screen tested about 5,800 compounds, of which about 620 (11%) showed activity.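 Rule for the calls: active = score above a cut-off or among the top three wells of a plate; in these data no inactive exceeds 0.85.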 The entries are a selection whose mix differs from that of the whole data set.
# Test system: primary human hepatic stellate cells (donor 1)
# Assay: scaled lipid accumulation score (0 = DMSO-like, 1 = nortriptyline-like); higher = stronger HSC inactivation (lipid re-accumulation), active = hit call of the paper
# Details: 48 h
# [1] = library stock concentration: 10 mM
# [2] = library stock concentration: 3.33 mM
# [3] = library stock concentration: 1 mM
compound,measurement,setting,value
CN1C(=O)CN=C(c2ccccc2)c2cc([N+](=O)[O-])ccc21 [Nimetazepam],scaled lipid accumulation score,[1],inactive: ≤ 0
C[N+]12CCC(CC1)C(OC(=O)C(O)(c1ccccc1)c1ccccc1)C2 (centres undefined) [Clidinium bromide],scaled lipid accumulation score,,inactive: ≤ 0
same,scaled lipid accumulation score,[1],inactive: ≤ 0
OC[C@@H](O)[C@H]1O[C@@H]2O[C@H](C(Cl)(Cl)Cl)O[C@@H]2[C@H]1O,scaled lipid accumulation score,[1],inactive: ≤ 0
CC(=O)OC12COC1CC(O)C1(C)C(=O)C(O)C3=C(C)C(O)CC(O)(C(OC(=O)c4ccccc4)C21)C3(C)C (centres undefined) [10-Deacetylbaccatin-III],scaled lipid accumulation score,[2],inactive: 0.014
same,scaled lipid accumulation score,[1],inactive: ≤ 0
CCCCC/C=C\C/C=C\C/C=C\C/C=C\CCCC(=O)Nc1cccc(O)c1 [N-(3-hydroxyphenyl)-Arachidonoyl amide],scaled lipid accumulation score,[3],inactive: 0.053
C[C@]12CC[C@H]3[C@@H](CCC4=CC(=O)CC[C@@H]43)[C@@H]1CC[C@@H]2O [Nandrolone],scaled lipid accumulation score,,inactive: 0.209
C[C@]12CC[C@H]3[C@@H](CCC4=CC(=O)CC[C@@H]43)[C@@H]1CC[C@@H]2O [19-Nortestosterone],scaled lipid accumulation score,[1],inactive: 0.291
CC(C)[C@@H]1NC(=O)[C@H](C)OC(=O)[C@@H](C(C)C)NC(=O)[C@@H](C(C)C)OC(=O)[C@H](C(C)C)NC(=O)[C@H](C)OC(=O)[C@@H](C(C)C)NC(=O)[C@@H](C(C)C)OC(=O)[C@H](C(C)C)NC(=O)[C@H](C)OC(=O)[C@@H](C(C)C)NC(=O)[C@@H](C(C)C)OC1=O [Valinomycin],scaled lipid accumulation score,library stock concentration: 4.5 mM,inactive: 0.447
N#Cc1ccc(N2CCN(C(=O)COc3ccc4[nH]cc(CCN)c4c3)CC2)cc1 [Donitriptan hydrochloride],scaled lipid accumulation score,[1],inactive: ≤ 0
"CN(C(=O)Cc1ccc(Cl)c(Cl)c1)[C@H](CN1CCCC1)c1ccccc1.Cl [ICI-199,441 hydrochloride]",scaled lipid accumulation score,[1],active: 1.58
"O=[N+]([O-])c1ccc2nc(N3CCNCC3)ccc2c1 [Quipazine, 6-nitro-, maleate]",scaled lipid accumulation score,[1],inactive: 0.416
CN1Cc2ccccc2[C@@H]2c3cccc4[nH]cc(c34)C[C@H]21,scaled lipid accumulation score,[1],inactive: 0.621
CC[C@H]1CN2CC[C@H]1C[C@@H]2[C@@H](O)c1ccnc2ccc(OC)cc12 [Hydroquinidine],scaled lipid accumulation score,[1],inactive: ≤ 0
c1ccc2c(N3CCNCC3)cccc2c1 [1-(1-Naphthyl)piperazine hydrochloride],scaled lipid accumulation score,[1],inactive: 0.407
COc1ccc(CN2CCNCC2)c(OC)c1OC [Trimetazidine dihydrochloride],scaled lipid accumulation score,,inactive: 0.013
COc1ccc2c(c1)c(CCN1CCOCC1)c(C)n2C(=O)c1cccc(Cl)c1Cl,scaled lipid accumulation score,[1],inactive: 0.325
O=C(N[C@H]1CN2CCC1CC2)c1cc2ccoc2cn1,scaled lipid accumulation score,[1],inactive: ≤ -0.055
CN1C2CCC1CC(OC(c1ccc(F)cc1)c1ccc(F)cc1)C2.Cl (centres undefined),scaled lipid accumulation score,[1],active: 1.29
C=C(C)[C@H]1CN[C@H](C(=O)O)[C@H]1CC(=O)O [Kainic acid],scaled lipid accumulation score,[1],inactive: ≤ -0.055 and inactive: 0.031 and inactive: ≤ -0.009
C=C(C)[C@H]1CN[C@H](C(=O)O)[C@H]1CC(=O)O [(-)-(.alpha.)-Kainic Acid (hydrate)],scaled lipid accumulation score,[3],inactive: ≤ 0
c1ccc(CCCCN2CCC(c3ccccc3)CC2)cc1 [4-PPBP maleate],scaled lipid accumulation score,[1],inactive: 0.63
Cc1cc(O)ccc1Cl [Chlorocresol],scaled lipid accumulation score,[2],inactive: ≤ 0
same,scaled lipid accumulation score,[1],inactive: ≤ -0.001 and inactive: ≤ 0
same,scaled lipid accumulation score,library stock concentration: 14 mM,inactive: ≤ -0.001
C[C@H](N)Cc1cnc[nH]1 [(S)-(+)-a-Methylhistamine dihydrobromide],scaled lipid accumulation score,[1],inactive: 0.003
CN(C)C(=O)C(CCN1CCC(O)(c2ccc(Cl)cc2)CC1)(c1ccccc1)c1ccccc1.Cl,scaled lipid accumulation score,library stock concentration: 9.7 mM,active: 1.02
CCCCC/C=C\C/C=C\C/C=C\C/C=C\CCCC(=O)N[C@@H](C)CO [S-1 Methanandamide],scaled lipid accumulation score,[3],inactive: ≤ 0
O=C(O)Cc1cccnc1C(=O)O [Homoquinolinic acid],scaled lipid accumulation score,[1],inactive: 0.004
CN[C@@H]1C[C@@H](c2ccc(Cl)c(Cl)c2)c2ccccc21 [Indatraline hydrochloride],scaled lipid accumulation score,[1],inactive: 0.091 and inactive: 0.211
O=[N+]([O-])c1cc(O)c(O)c([N+](=O)[O-])c1,scaled lipid accumulation score,[1],inactive: ≤ 0
"O=[N+]([O-])c1cc(O)c(O)c([N+](=O)[O-])c1 [3,5-Dinitrocatechol]",scaled lipid accumulation score,[1],inactive: ≤ -0.07
O=C1CN=C(c2ccccc2Cl)c2cc([N+](=O)[O-])ccc2N1 [Clonazepam],scaled lipid accumulation score,library stock concentration: 6.3 mM,inactive: ≤ 0
NCCc1ccc(S(=O)(=O)F)cc1,scaled lipid accumulation score,[2],inactive: ≤ -0.001
same,scaled lipid accumulation score,[1],inactive: 0.025
NCCc1ccc(S(=O)(=O)F)cc1 [4-(2-Aminoethyl)benzenesulfonyl fluoride hydrochloride],scaled lipid accumulation score,[1],inactive: 0.06
C[C@H]1O[C@H](O[C@H]2[C@H](O)[C@@H](O)[C@@H](O)[C@H](O)[C@@H]2O)[C@@H](N)C[C@@H]1NC(=N)C(=O)O [Kasugamycin hydrochloride],scaled lipid accumulation score,[1],inactive: 0.133
C[C@H]1O[C@H](O[C@H]2[C@H](O)[C@@H](O)[C@@H](O)[C@H](O)[C@@H]2O)[C@@H](N)C[C@@H]1NC(=N)C(=O)O [Kasugamycin],scaled lipid accumulation score,library stock concentration: 5.3 mM,inactive: ≤ -0.006
C[C@H](N)CN1CCc2ccc(Br)cc21 [VER-3323 hemifumarate salt],scaled lipid accumulation score,[1],inactive: 0.817
Nc1nc(N)nc(NC2CC2)n1 [Cyromazine],scaled lipid accumulation score,[2],inactive: ≤ 0
same,scaled lipid accumulation score,[1],inactive: 0.311
Nc1nc(N)nc(NC2CC2)n1,scaled lipid accumulation score,[1],inactive: ≤ 0
CN(C)CCN(C)CCc1ccc(Cl)c(Cl)c1 [BD 1047 dihydrobromide],scaled lipid accumulation score,[1],inactive: 0.679
Cc1ccc(-c2nc3ccc(C)cn3c2CC(=O)N(C)C)cc1,scaled lipid accumulation score,[1],inactive: ≤ 0
Cc1ccc(-c2nc3ccc(C)cn3c2CC(=O)N(C)C)cc1 [Zolpidem],scaled lipid accumulation score,[1],inactive: 0.079
N=C(N)NN [Aminoguanidine hemisulfate],scaled lipid accumulation score,[1],inactive: ≤ 0
N=C(N)NN,scaled lipid accumulation score,[1],inactive: ≤ 0
N=C(N)NN [Aminoguanidine hydrochloride],scaled lipid accumulation score,[1],inactive: 0.008 and inactive: ≤ 0

# Reference: the supplement of paper PMC9135407
